Measured values from PMC4589964.
These are yes or no findings as the source states them, for the method shown. Binding seen in cells or lysates may run through a third protein. Some results given as binding are weak or reduced against the parent protein; the word gives no strength. For some of these results: Sequences can lack the tags named with a protein.

Protein sequences, listed by entry. Tags and fused reporters are not part of them.
UniProt Q8CBW3: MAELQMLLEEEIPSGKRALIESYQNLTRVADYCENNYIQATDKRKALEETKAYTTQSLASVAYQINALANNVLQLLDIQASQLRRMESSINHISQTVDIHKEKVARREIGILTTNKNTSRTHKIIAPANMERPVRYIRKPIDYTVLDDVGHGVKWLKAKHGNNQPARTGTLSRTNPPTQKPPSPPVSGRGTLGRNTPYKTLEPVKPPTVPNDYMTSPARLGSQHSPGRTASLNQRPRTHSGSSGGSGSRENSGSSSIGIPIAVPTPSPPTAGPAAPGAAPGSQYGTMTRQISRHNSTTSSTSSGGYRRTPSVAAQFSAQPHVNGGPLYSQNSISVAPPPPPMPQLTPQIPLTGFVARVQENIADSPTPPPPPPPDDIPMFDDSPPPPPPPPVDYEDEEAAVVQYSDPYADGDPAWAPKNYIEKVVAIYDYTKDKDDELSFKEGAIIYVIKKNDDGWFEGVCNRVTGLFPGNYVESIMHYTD
UniProt Q8IZP0: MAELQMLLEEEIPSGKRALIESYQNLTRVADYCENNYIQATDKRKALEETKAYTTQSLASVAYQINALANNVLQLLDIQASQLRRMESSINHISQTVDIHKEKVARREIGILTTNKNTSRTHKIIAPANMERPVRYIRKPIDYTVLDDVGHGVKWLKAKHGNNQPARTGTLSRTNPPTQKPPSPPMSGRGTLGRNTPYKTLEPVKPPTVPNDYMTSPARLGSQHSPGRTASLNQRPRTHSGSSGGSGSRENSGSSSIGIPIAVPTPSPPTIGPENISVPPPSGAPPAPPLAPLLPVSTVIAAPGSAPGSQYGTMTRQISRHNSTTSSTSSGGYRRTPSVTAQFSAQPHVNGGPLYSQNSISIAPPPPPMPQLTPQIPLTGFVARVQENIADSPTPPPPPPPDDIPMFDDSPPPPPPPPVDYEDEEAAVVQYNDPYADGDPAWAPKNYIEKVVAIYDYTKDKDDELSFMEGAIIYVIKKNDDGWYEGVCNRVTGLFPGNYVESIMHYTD
UniProt P00520: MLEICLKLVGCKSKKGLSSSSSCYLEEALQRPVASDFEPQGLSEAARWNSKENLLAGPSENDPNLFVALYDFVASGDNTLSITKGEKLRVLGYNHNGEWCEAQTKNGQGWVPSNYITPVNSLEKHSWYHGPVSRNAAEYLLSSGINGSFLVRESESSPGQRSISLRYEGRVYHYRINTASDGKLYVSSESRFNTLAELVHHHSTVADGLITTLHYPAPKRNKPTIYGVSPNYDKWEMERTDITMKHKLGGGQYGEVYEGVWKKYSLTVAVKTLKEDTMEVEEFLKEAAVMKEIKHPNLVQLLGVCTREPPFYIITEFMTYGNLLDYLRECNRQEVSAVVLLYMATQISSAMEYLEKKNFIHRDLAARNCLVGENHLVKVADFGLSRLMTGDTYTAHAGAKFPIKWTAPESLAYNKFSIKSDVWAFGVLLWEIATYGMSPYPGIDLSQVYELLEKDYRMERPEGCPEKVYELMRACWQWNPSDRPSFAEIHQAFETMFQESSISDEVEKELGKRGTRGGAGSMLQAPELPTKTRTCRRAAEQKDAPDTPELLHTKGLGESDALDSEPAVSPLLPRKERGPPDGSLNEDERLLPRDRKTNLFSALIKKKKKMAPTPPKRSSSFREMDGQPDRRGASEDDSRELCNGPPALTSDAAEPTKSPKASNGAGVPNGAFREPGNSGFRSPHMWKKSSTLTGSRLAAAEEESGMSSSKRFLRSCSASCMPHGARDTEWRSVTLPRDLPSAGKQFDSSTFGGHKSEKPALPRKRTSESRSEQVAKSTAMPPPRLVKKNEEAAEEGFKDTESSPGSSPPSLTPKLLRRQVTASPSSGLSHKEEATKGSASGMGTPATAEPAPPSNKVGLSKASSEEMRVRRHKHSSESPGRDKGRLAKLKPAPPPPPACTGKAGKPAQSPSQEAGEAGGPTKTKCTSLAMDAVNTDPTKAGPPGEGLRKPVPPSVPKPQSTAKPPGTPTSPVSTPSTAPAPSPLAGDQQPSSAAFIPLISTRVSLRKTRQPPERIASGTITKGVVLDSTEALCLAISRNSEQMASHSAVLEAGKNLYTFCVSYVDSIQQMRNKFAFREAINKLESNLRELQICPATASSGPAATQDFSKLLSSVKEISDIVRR

Assays:
[1] = molecular target: T1, NESH/Abi-3 (endogenous, mouse brain) (mouse (endogenous in mouse brain)) (UniProt Q8BYZ1); experiment: co-IP; mouse brain lysates; precipitated with anti-Abi-1 (1G9) or anti-NESH (2H7); overnight at 4 °C, protein G beads; Western blot
T1 sequence: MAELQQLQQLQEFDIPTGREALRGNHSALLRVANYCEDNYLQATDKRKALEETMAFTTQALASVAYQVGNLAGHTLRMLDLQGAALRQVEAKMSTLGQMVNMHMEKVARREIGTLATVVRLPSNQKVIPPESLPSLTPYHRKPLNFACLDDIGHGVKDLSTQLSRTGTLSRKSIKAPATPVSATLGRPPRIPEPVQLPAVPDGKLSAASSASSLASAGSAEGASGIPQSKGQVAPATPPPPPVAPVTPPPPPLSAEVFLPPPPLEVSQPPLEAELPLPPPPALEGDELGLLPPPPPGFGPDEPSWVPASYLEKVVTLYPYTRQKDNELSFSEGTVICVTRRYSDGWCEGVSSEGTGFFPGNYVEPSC

[2] = molecular target: Abi-1 (endogenous, mouse) (mouse (endogenous in NIH3T3 and mouse brain)) (UniProt Q8CBW3); experiment: as above
[3] = molecular target: Abi-1 (endogenous, mouse) (mouse (endogenous in NIH3T3 and mouse brain)) (UniProt Q8CBW3); experiment: co-IP; lysates of control and FLAG-NESH-expressing NIH3T3 cells; precipitated with anti-Abi-1 (1G9), anti-NESH (2H7) or anti-FLAG (M2); overnight at 4 °C, protein G beads; Western blot
[4] = molecular target: FLAG-tagged NESH/Abi-3 stably expressed in NIH3T3 cells (human) (UniProt Q9P2A4); experiment: as above
[5] = molecular target: Abi-1 (endogenous, HUVEC) (human (endogenous in HUVEC)) (UniProt Q8IZP0); experiment: co-IP; HUVEC lysates; precipitated with anti-Abi-1 (1G9) or a rabbit anti-human NESH antibody; overnight at 4 °C, protein G beads; Western blot

Substance	binding [1]	binding [2]	binding [3]	binding [4]	binding [5]
c-Abl (endogenous, mouse brain) (from UniProt P00520 1-1123)	no binding	no binding	–	–	–
WAVE2 (endogenous, mouse) (from UniProt Q8BH43 1-497)	binds	binds	binds	binds	–
WAVE2 (endogenous, HUVEC) (from UniProt Q9Y6W5 1-498)	–	–	–	–	binds
